Source: the supplement of paper PMC11417369
± gives the standard deviation of the averaged measurements. The list shows a part of the results.

These sequences were tested on PfAP2-I AP2 domain 3 (GST-tagged) (assay: gcPBM binding intensity (ln(normalized median fluorescence intensity)); higher = stronger DNA binding).
Summary of the method: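 Plasmodium falciparum DNA-binding domains carrying a GST tag were expressed in E. coli and applied for 1 h, at about 25 μg on average, to an Agilent 4 × 180k array. The array held primer-extended double-stranded 36-bp intergenic genomic probes together with negative controls, and binding took place in 1× PBS with 1% milk, 0.2 mg/ml BSA, 0.5% salmon testes DNA and 0.03% Triton X-100. An Alexa488 anti-GST antibody detected bound protein, and the array was scanned at 488 nm. Binding intensity is taken as the highest Masliner-normalised natural-log median intensity across replicate spots of either probe orientation.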

Sequence	gcPBM binding intensity (ln)
CATGCAATATTAAACACACACTCATATAGCACAATA [CACACA_site6182]	10.8 ± 0.49
ACAGTATCTGGTAGCTGTACGGATTGTAGAGAGTAG [XGTACX_site4872]	8.46 ± 0.36
AGAATAATAAAATGGGTGCAATAGTTTTTTTTTTTT [GTGCAC_site9823]	11.2 ± 0.44
TATTAAAGGGGTTTCACACACATGTATAATTAATTT [CACACA_site200]	7.69 ± 0.57
AATTTGTTATGTATATGTACATAAATAGATATATGA [XGTACX_site3930]	7.82 ± 0.54
AACCATATTTAGATTACACACAGTTTAAATATTTTA [CACACA_site6712]	7.58 ± 0.57
AATATGAACAGACACACACACACAAAAAAAAAAAAA [CACACA_site2012]	7.98 ± 0.71
TCTTGACGAAGTAGAAGGATATATATATAAAAAAAA [CACACA_negctrl_site641]	7.85 ± 0.59
AGGAGGTCAGTTCACAGTACCCAGAAAACTCTACGA [XGTACX_site1992]	7.84 ± 0.27
TCCAGGTATTTATTCTGTACACATAAAACATTTTAT [XGTACX_site8472]	7.79 ± 0.48
TCGTCTCTTCTTGTTCTGTTTTAGAAGGCTATATAT [CACACA_negctrl_site180]	8.02 ± 0.65
ATATATATATATATATGTACATATTTTAATAATTAA [XGTACX_site8549]	9.51 ± 0.42
TGTTGTTACATATATACACACATATATATATTATAT [CACACA_site2397]	7.83 ± 0.52
CGCGCACACGGACACACACACACACGGATATAAATA [CACACA_site7102]	8.05 ± 0.33
TGGTATATATTTCCTTGTACATATAATATATATTGT [XGTACX_site3961]	7.75 ± 0.64
TAATATAGTATAGTATGTACATATAATTAGAATATT [XGTACX_site4053]	8.15 ± 0.41
CATATTTCTTTATTGGCACACATTTTTTCAATTATA [CACACA_site1618]	8.32 ± 0.56
TGAAATAAATAATGCACACTCTACAGATATACGTAT [CACACA_site5270]	11.1 ± 0.66
TTGAAAATACAAAATTGTACAAAGATTTAAATAAAA [XGTACX_site1182]	7.75 ± 0.63

Sequence	gcPBM binding intensity (ln)
AAAAAAAAAAAAAACACACACAAATTTAATCTATAT [CACACA_site6894]	8.22 ± 0.5
TGTTATTACTTTATATCATCTTAAAATAAGCATATT [CACACA_negctrl_site1501]	7.47 ± 0.61
TATTTATTTATGTGTTGTACAAATAAATAGAGGTAT [XGTACX_site6408]	8.16 ± 0.48
ATATATTAAAAACGATGTACCCTGAACTAAAAAAAA [XGTACX_site4986]	7.75 ± 0.52
TTTATTTATTACAATTTTTGAATCACCACACAGTCG [GTGCAC_negctrl_site413]	7.88 ± 0.13
ATCATGTTATATACATGTACATATATATATATATAT [XGTACX_site1329]	9.47 ± 0.71
TATATGAAAATGTTCATACACACATAAAAAAAAAAA [CACACA_site3237]	7.96 ± 0.7
TAGTTTTCTTAAAGATGTACATTTTAAAAATAATCT [XGTACX_site255]	7.955 ± 0.021
TAGATATATAATTTGCGTACACAAATAATATATTTT [XGTACX_site6397]	7.97 ± 0.2
AATACAAATATATACACACATACATACATACATATA [CACACA_site3147]	7.82 ± 0.47
ATATATATATGTTACTGTACTAATTTATATGTTAAT [XGTACX_site3341]	9.28 ± 0.16
CACAAAAATAGACACACACACATATAGATTTATTAT [CACACA_site7676]	7.79 ± 0.37
TTATGGTTTAAATAAAGTACAAATAAATAAATATAT [XGTACX_site5777]	7.88 ± 0.59
ATACACATATGTTAATGTACACATATATAATATTTA [XGTACX_site163]	7.89 ± 0.4
TTTCTTAAATATATTGAGGAATAAAAAGAAGAAAAG [GTGCAC_negctrl_site281]	7.74 ± 0.49
TTATGAAAAATAAAATTAGAAAAAAAGGAAAATGAA [XGTACX_negctrl_site232]	7.73 ± 0.65
AGGTTACATAGATTTTGTACATATATATTATTTTTT [XGTACX_site3040]	7.66 ± 0.59
AAAAAATTATAAAAGTGTACATATATATATATATAT [XGTACX_site154]	9.42 ± 0.4
GTTCATACTTAATATTGTACTTTTCATGTAGTGTAT [XGTACX_site6613]	7.85 ± 0.55

Sequence	gcPBM binding intensity (ln)
TACAAATATATATGCACACACATATACATACATATA [CACACA_site2182]	9.39 ± 0.39
TATTAGATATAATATATACACACCAACGAACGAAGA [CACACA_site1134]	8.2 ± 0.52
AAATAAATATTTATATGTACATATATTTTATAATAC [XGTACX_site7041]	7.8 ± 0.36
TAACATATTTTTAATACACACTCAAAAAAGTACTTA [CACACA_site5638]	7.92 ± 0.28
TTCATTCAAATTAACGTGCACATTATTAGTAAAAAC	11.05 ± 0.035
TTATATAATTTAATAGTGCAATTATATTAATTTTTC	9.82 ± 0.42
TATACCTATAGACACACACACATATAGATTTATATA [CACACA_site7124]	7.85 ± 0.38
CGCATACACAGACACACACACACATATAAATATGTA [CACACA_site6444]	8.03 ± 0.35
AATTTTTTATTAAACACACAAACATATATATATATA [CACACA_site1937]	9.23 ± 0.13
GAAATTATGTAAAAAAGTACTAACATACATATATAT [XGTACX_site1794]	7.77 ± 0.68
GAAAACGTCTTTAATAGTACACAGTTAAAAAATACA [XGTACX_site8976]	7.63 ± 0.57
TTTTTTCATTATATATAGTATGCAAGTCAAATTAAT [GTGCAC_negctrl_site207]	7.78 ± 0.54
TATATATATATATAAAGTACATATAATATATATTTG [XGTACX_site5412]	9.27 ± 0.38
ACAAAATTTACAAAATGTACAAAATTTACAAAATAT [XGTACX_site3542]	7.53 ± 0.52
CTATAAAAATATAATTGTACAAATTTTTATATCTTA [XGTACX_site7722]	7.49 ± 0.39
AAAAAAAAAAAAAACATACACACATTGAACTTTTAT [CACACA_site3251]	8.18 ± 0.54
TTTTTGTGCATTGATTGTACTTTCTAGGATTATTAA [XGTACX_site7070]	10.16 ± 0.049
TTTATCCAATAATCTGGTACACAATAATCATTCATG [XGTACX_site6192]	7.63 ± 0.42
ATTCATATATACTTCACACACATTTTATCATTCAAA [CACACA_site2468]	8.16 ± 0.61
